# Laboratory results published in the supplement of paper PMC8728848.
# The other results are listed elsewhere or left out.
# Key:
# Assay in all cases: glycan array binding signal (z-score within array); higher = stronger binding
# Conditions in all cases: glycan notation: IUPAC condensed, linker removed
# [1] = target: Neu5Ac(a2-6)GlcNAc(b1-4)GlcNAc
# Method in brief: (§1)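 The binding signal is a Z-score computed within each array. Data were drawn from 3228 arrays in the Consortium for Functional Glycomics database, restricted to those with a known protein sequence. Scores were averaged over arrays of the same protein sequence at different concentrations or buffers, and over linkers, and negative values can be taken as non-binding.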
# [2] = target: Neu5Ac(a2-6)GlcNAc(b1-4)GlcNAc(b1-4)GlcNAc
# Method in brief: as §1
# [3] = target: Neu5Ac(a2-8)Neu5Ac
# Method in brief: as §1
# [4] = target: Neu5Ac(a2-8)Neu5Ac(a2-3)Gal(b1-3)GalNAc(b1-4)[Neu5Ac(a2-3)]Gal(b1-4)Glc
# Method in brief: as §1
# [5] = target: Neu5Ac(a2-8)Neu5Ac(a2-3)Gal(b1-3)GalNAc(b1-4)[Neu5Ac(a2-8)Neu5Ac(a2-3)]Gal(b1-4)Glc
# Method in brief: as §1
# [6] = target: Neu5Ac(a2-8)Neu5Ac(a2-3)Gal(b1-4)Glc
# Method in brief: as §1
# [7] = target: Neu5Ac(a2-8)Neu5Ac(a2-3)Gal(b1-4)GlcNAc
# Method in brief: as §1
# [8] = target: Neu5Ac(a2-8)Neu5Ac(a2-3)[Gal(b1-3)GalNAc(b1-4)]Gal(b1-4)Glc
# Method in brief: as §1
# [9] = target: Neu5Ac(a2-8)Neu5Ac(a2-3)[GalNAc(b1-4)]Gal(b1-4)Glc
# Method in brief: as §1
# [10] = target: Neu5Ac(a2-8)Neu5Ac(a2-8)Neu5Ac
# Method in brief: as §1
# [11] = target: Neu5Ac(a2-8)Neu5Ac(a2-8)Neu5Ac(a2-3)Gal(b1-4)Glc
# Method in brief: as §1
# [12] = target: Neu5Ac(a2-8)Neu5Ac(a2-8)Neu5Ac(a2-3)[Gal(b1-3)GalNAc(b1-4)]Gal(b1-4)Glc
# Method in brief: as §1
# [13] = target: Neu5Ac(a2-8)Neu5Ac(a2-8)Neu5Ac(a2-3)[GalNAc(b1-4)]Gal(b1-4)Glc
# Method in brief: as §1
# [14] = target: Neu5Ac(a2-8)Neu5Ac(a2-8)Neu5Ac(a2-8)Neu5Ac(a2-3)[GalNAc(b1-4)]Gal(b1-4)Glc
# Method in brief: as §1
# [15] = target: Neu5Ac(a2-8)Neu5Gc(a2-3)Gal(b1-4)GlcNAc
# Method in brief: as §1
# [16] = target: Neu5Ac(b2-6)Gal(b1-4)GlcNAc
# Method in brief: as §1
# [17] = target: Neu5Ac(b2-6)GalNAc
# Method in brief: as §1
# [18] = target: Neu5Ac9Ac(a2-3)Gal(b1-3)GlcNAc
# Method in brief: as §1
# [19] = target: Neu5Ac9Ac(a2-3)Gal(b1-4)GlcNAc
# Method in brief: as §1
# [20] = target: Neu5Ac9Ac(a2-6)Gal(b1-4)GlcNAc
# Method in brief: as §1
# [21] = target: Neu5Gc(a2-3)Gal(b1-3)GlcNAc
# Method in brief: as §1
# [22] = target: Neu5Gc(a2-3)Gal(b1-3)[Fuc(a1-4)]GlcNAc
# Method in brief: as §1
# [23] = target: Neu5Gc(a2-3)Gal(b1-4)Glc
# Method in brief: as §1
# [24] = target: Neu5Gc(a2-3)Gal(b1-4)GlcNAc
# Method in brief: as §1
# [25] = target: Neu5Gc(a2-3)Gal(b1-4)GlcNAc(b1-3)Gal(b1-4)GlcNAc(b1-2)Man(a1-3)[Neu5Gc(a2-3)Gal(b1-4)GlcNAc(b1-3)Gal(b1-4)GlcNAc(b1-2)Man(a1-6)]Man(b1-4)GlcNAc(b1-4)GlcNAc
# Method in brief: as §1
# [26] = target: Neu5Gc(a2-3)Gal(b1-4)[Fuc(a1-3)]GlcNAc
# Method in brief: as §1
# [27] = target: Neu5Gc(a2-6)Gal(b1-4)GlcNAc
# Method in brief: as §1
# [28] = target: Neu5Gc(a2-6)GalNAc
# Method in brief: as §1
# [29] = target: Neu5Gc(a2-8)Neu5Ac(a2-3)Gal(b1-4)GlcNAc
# Method in brief: as §1
# [30] = target: Neu5Gc(a2-8)Neu5Gc(a2-3)Gal(b1-4)GlcNAc
# Method in brief: as §1
# [31] = target: Neu5Gc(a2-8)Neu5Gc(a2-3)Gal(b1-4)GlcNAc(b1-3)Gal(b1-4)GlcNAc
# Method in brief: as §1
# [32] = target: Neu5Gc(a2-8)Neu5Gc(a2-6)Gal(b1-4)GlcNAc
# Method in brief: as §1
# [33] = target: Neu5Gc(b2-6)Gal(b1-4)GlcNAc
# Method in brief: as §1
binder,measurement,setting,value
CTAEGIKKFEGDGYELFKDNFPAGEKFDNDDTNDQFYTVIF [MUB40 (Lactobacillus reuteri)],glycan array binding signal (z-score),[1],-0.386
same,glycan array binding signal (z-score),[2],-0.383
same,glycan array binding signal (z-score),[3],-0.462
same,glycan array binding signal (z-score),[4],-0.669
same,glycan array binding signal (z-score),[5],-0.286
same,glycan array binding signal (z-score),[6],-0.599
same,glycan array binding signal (z-score),[7],-0.482
same,glycan array binding signal (z-score),[8],-0.27
same,glycan array binding signal (z-score),[9],-0.53
same,glycan array binding signal (z-score),[10],-0.703
same,glycan array binding signal (z-score),[11],0.232
same,glycan array binding signal (z-score),[12],-0.348
same,glycan array binding signal (z-score),[13],-0.447
same,glycan array binding signal (z-score),[14],-0.4
same,glycan array binding signal (z-score),[15],1.95
same,glycan array binding signal (z-score),[16],-0.375
same,glycan array binding signal (z-score),[17],-0.049
same,glycan array binding signal (z-score),[18],-0.434
same,glycan array binding signal (z-score),[19],-0.522
same,glycan array binding signal (z-score),[20],-0.242
same,glycan array binding signal (z-score),[21],-0.221
same,glycan array binding signal (z-score),[22],-0.398
same,glycan array binding signal (z-score),[23],-0.38
same,glycan array binding signal (z-score),[24],2.42
same,glycan array binding signal (z-score),[25],2.75
same,glycan array binding signal (z-score),[26],-0.072
same,glycan array binding signal (z-score),[27],-0.043
same,glycan array binding signal (z-score),[28],0.011
same,glycan array binding signal (z-score),[29],-0.006
same,glycan array binding signal (z-score),[30],-0.281
same,glycan array binding signal (z-score),[31],2.42
same,glycan array binding signal (z-score),[32],-0.021
same,glycan array binding signal (z-score),[33],-0.505
